Measured values published in the supplement of paper PMC3334620.
Over roughly 33,000 sequences, “E-score (-0.5 to 0.5)” has its median near -0.043; the highest 2% begin near 0.37. The list shows a part of the results.

target: T1, Upc2 (UniProt Q12151); assay: PBM E-score (8-mer binding enrichment) (E-score (-0.5 to 0.5)); higher = stronger / more preferred TF binding; most listed sequences are background and not binding sites; conditions: protein concentration: 200 nM; construct: GST-full length
T1 sequence: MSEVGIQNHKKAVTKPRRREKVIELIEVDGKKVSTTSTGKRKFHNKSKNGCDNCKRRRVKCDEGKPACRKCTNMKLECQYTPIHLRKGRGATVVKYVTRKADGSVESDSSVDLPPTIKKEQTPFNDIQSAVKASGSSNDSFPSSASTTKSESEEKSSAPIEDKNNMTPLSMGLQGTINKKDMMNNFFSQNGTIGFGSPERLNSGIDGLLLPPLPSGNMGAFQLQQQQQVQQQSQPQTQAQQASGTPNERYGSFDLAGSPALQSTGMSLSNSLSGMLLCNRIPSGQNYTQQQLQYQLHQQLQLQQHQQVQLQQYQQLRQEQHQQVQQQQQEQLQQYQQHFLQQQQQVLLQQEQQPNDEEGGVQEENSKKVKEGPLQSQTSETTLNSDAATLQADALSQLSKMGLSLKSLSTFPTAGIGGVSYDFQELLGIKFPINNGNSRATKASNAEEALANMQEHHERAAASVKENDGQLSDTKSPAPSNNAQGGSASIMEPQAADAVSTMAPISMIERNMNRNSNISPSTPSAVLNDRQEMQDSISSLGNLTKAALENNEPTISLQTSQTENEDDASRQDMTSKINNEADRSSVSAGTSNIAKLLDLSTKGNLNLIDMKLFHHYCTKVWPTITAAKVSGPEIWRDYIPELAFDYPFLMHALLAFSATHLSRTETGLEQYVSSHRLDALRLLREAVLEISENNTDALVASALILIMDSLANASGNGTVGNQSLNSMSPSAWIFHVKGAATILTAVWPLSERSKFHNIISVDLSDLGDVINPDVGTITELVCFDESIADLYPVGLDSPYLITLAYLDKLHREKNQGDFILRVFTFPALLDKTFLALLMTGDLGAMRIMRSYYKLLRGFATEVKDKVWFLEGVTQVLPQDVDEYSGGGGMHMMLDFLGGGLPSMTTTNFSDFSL
In short: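 For each ungapped eight-base word taken together with its reverse complement, the Universal PBM Analysis Suite assigned an E-score. Binding data came from GST-tagged yeast transcription factors, applied at about 100-200 nM, on universal all-10-mer Agilent arrays made double-stranded by primer extension. Fluorescent anti-GST marked bound protein, and scans were normalised with masliner.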

Row | Sequence | PBM E-score
1 | AATTGGTG | 0.0032
2 | GCGTCCAC | -0.206
3 | ACGGCGTC | 0.0942
4 | CGTATAAC | 0.478
5 | GCTTAAAA | 0.11
6 | CATTTCCA | -0.0799
7 | ATACTGCC | -0.0146
8 | AATGAGCG | 0.0444
9 | CGATATCC | 0.137
10 | ATAGCTTG | -0.0163
11 | ACGCTGAT | 0.0974
12 | AACCGGCT | -0.239
13 | GTAAAATA | 0.167
14 | CAGTGTCC | -0.141
15 | CCACCTTA | -0.122
16 | GTCAGGAA | -0.0731
17 | CGGCGGTC | -0.0804
18 | CCTCACTC | -0.019
19 | AGGCTAAC | 0.00166
20 | GTGTTGTA | 0.128
21 | CAACACCC | -0.159
22 | CTCGCCCC | -0.0354
23 | TAGTAAGA | -0.0981
24 | ATAATAAG | 0.0827
25 | CGCGGGAA | 0.0521

Row | Sequence | PBM E-score
26 | GTGAGTTA | -0.184
27 | AGTGATGA | -0.158
28 | CTCGCAAG | 0.124
29 | AGTATTAA | 0.00356
30 | CAACTGAA | -0.00109
31 | ATGGGGCA | -0.196
32 | GGAGATCA | -0.136
33 | ACCCAGGC | -0.118
34 | CCGCCGAA | -0.137
35 | AACAAGTC | -0.109
36 | AAGACATA | -0.0365
37 | CTCGGGGA | -0.177
38 | CTCCAGAA | -0.0763
39 | ACATCTAT | 0.119
40 | GGACATAA | -0.0984
41 | AGCACCCC | -0.205
42 | CGAGTTGA | 0.117
43 | GCACGGAA | -0.15
44 | GCGCATCA | -0.183
45 | AAAAGGGC | -0.27
46 | AGGTAGAA | -0.0771
47 | CAGCTTAC | 0.114
48 | ATCGTACC | 0.455
49 | AAGTCCAA | -0.163
50 | CACGCAAA | -0.0775

Row | Sequence | PBM E-score
51 | AATTTCCA | -0.107
52 | GGTAGGCA | -0.25
53 | AAAGGTGC | -0.153
54 | GGGACTAA | -0.183
55 | AGCTGCTC | -0.149
56 | AACGACCA | 0.405
57 | GGGGGCTA | -0.227
58 | AGAACTGG | -0.144
59 | GGAGGACA | -0.0797
60 | ATGCTTCA | -0.133
61 | AATGGCAT | 0.145
62 | AATACTGA | 0.0641
63 | AAGCGACC | 0.252
64 | TACAGGGA | -0.0298
65 | CGTCGGAC | 0.0134
66 | TAAGACCA | -0.148
67 | ACATACGG | 0.354
68 | CTCCACCA | -0.177
69 | GGTCTAAA | -0.0209
70 | ACTTTCTA | -0.195
71 | GAAACAAC | 0.00532
72 | CGAGCTGC | 0.144
73 | GGACCAGA | -0.17
74 | CCGCTGGC | -0.258
75 | GAAACACC | 0.0158

Row | Sequence | PBM E-score
76 | CATAAGGG | -0.156
77 | GCCCACTA | -0.139
78 | AGCCTATA | -0.018
79 | AGTCCCCG | -0.0847
80 | AATTGATC | 0.0229
81 | AGTGAGAT | -0.149
82 | CCCTTGCG | -0.179
83 | ATGCGTAA | 0.231
84 | TATACCCA | -0.0138
85 | CGCAAGTC | -0.155
86 | AGTGTATC | 0.12
87 | AGGGTCGG | 0.0904
88 | AGAGCACT | 0.00095
89 | CGGGTATA | 0.195
90 | TAGTGAAA | -0.285
91 | CGTACTAG | 0.334
92 | GGACCTTA | 0.00047
93 | CCCTAGGC | -0.3
94 | ATGACCGA | 0.0751
95 | CTACCCGA | 0.174
96 | AGAGGCGG | -0.151
97 | AAACTCTG | 0.01
98 | CGGGCACC | -0.163
99 | AAAAGTTC | 0.0659
100 | ATTTTCTA | -0.0212

Row | Sequence | PBM E-score
101 | GGTACCAA | -0.107
102 | GTTAGTTA | 0.141
103 | AATAGATG | 0.235
104 | CGTGCTGC | -0.126
105 | GCCGAGCC | -0.204
106 | ACACTCGA | 0.0541
107 | CACTGTCC | 0.0461
108 | AACTGATA | 0.0728
109 | CTGCAACC | -0.247
110 | CATTTGAA | -0.0646
111 | CTCTCCGC | -0.218
112 | GTACTTTA | 0.168
113 | CCCAGCCG | -0.176
114 | AGACGACA | 0.104
115 | ACCATAAG | -0.188
116 | ATATCTGA | -0.0825
117 | GAGATTGA | -0.19
118 | CATTCCCA | -0.0598
119 | ATGCCGCA | -0.0256
120 | ACCTGGAA | 0.0285
121 | CCCAGCTA | -0.152
122 | GCTCATCC | 0.0284
123 | AAACCGCC | -0.138
124 | CGCACGTA | 0.238
125 | ACGCCCCC | -0.0922

Row | Sequence | PBM E-score
126 | CAGACGTA | 0.131
127 | GACCAAGA | -0.121
128 | TTCACAAA | -0.0817
129 | CAGGGATA | -0.0688
130 | ACCATTTA | 0.141
131 | CTGCGGTA | -0.00219
132 | CCAATGCG | -0.0869
133 | GTTGAAGA | 0.0821
134 | TTACCTAA | 0.0272
135 | GAATATTA | 0.0641
136 | GGGCGTAC | 0.246
137 | AGGGACAG | -0.222
138 | CGCCCAAC | -0.0377
139 | CAATGCGA | 0.0657
140 | ACCGCTGG | -0.171
141 | CCCGCGCC | -0.0861
142 | AATTAGCG | 0.121
143 | AGAACGTA | 0.252
144 | ACTTCCAG | -0.167
145 | AGTAGCCG | -0.16
146 | AGAGTAAT | -6e-05
147 | TCATTGCA | -0.0974
148 | TCTCAACA | -0.148
149 | GAACTCGC | 0.132
150 | ATTCTAAG | 0.114

Row | Sequence | PBM E-score
151 | AATGTCTC | -0.21
152 | AACAATGA | -0.00958
153 | CCCTCCCC | -5e-05
154 | GAAGAGGA | -0.255
155 | ACTCTTCT | -0.0617
156 | CTAGCTCC | 0.00104
157 | AGGTCCGA | 0.0905
158 | CCTCAAAC | 0.216
159 | CCACCCCG | 0.0167
160 | AAATGACT | -0.149
161 | GCAGGTTA | -0.0611
162 | TACTGCTA | -0.154
163 | ATCTGCTC | -0.218
164 | AAACACAT | 0.0273
165 | AGGGCCCT | -0.104
166 | TGGAGCAA | -0.0128
167 | AGAATAGC | -0.229
168 | ATCCTCGG | 0.0854
169 | AGTCGTAC | 0.452
170 | CCCAATAA | -0.12
171 | ACGAGGGG | 0.352
172 | GCGTTGAC | -0.0988
